In PubChem BioAssay AID686979 (National Center for Advancing Translational Sciences (NCATS), 2013):
The whole screen tested about 420,000 compounds, of which about 50,000 (12%) were called active. Inconclusive means that the source gave no clear call. Such entries were picked first, then a sample of the others. Calls come from the whole dose curve; as a rule, active = well fitted inhibition curve with a large enough effect; inconclusive = small, poorly fitted or top-dose-only effect; inactive = flat fitted curve, though single readings scatter. No potency is given beside an inconclusive call; the fits are too rough.

Assay: qHTS for Inhibitors of human tyrosyl-DNA phosphodiesterase 1 (TDP1): qHTS in cells in presence of CPT; note: nearly all actives have a fitted effect of over 55% in size
Details: chicken DT40 Tdp1-/-;hTDP1 cells + 20 nM CPT, ATP luminescence, 48 h; activity change, negative = growth inhibition: at 46.2 µM (top of the series) unless noted
Summary of the method: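 Cell growth measured by CellTiter-Glo luminescence after a minimum 48 h, 37 C compound exposure with 20 nM CPT in Tdp1-knockout DT40 cells stably expressing hTDP1, seeded 400/well; qHTS titration format.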
% is set by controls: 0 for no effect and ±100 for the full control effect; potency is the fitted concentration of half-maximal effect; tags give direction and shape of the fitted curve.

| SMILES | activity change, negative = growth inhibition | Potency |
| --- | --- | --- |
| CCOc1cccc(C2/C(=C(/O)c3ccc4c(c3)CC(C)O4)C(=O)C(=O)N2CCCn2ccnc2)c1 (stereo not given) | inactive: -2.35% | – |
| O=C(O)c1cc(N2N=C(C(F)(F)F)/C(=C/C=C/c3ccco3)C2=O)ccc1Cl | – | inconclusive [inhibitor, single point] |
| O=C(N/N=C/c1cccs1)c1n[nH]c2c1CCCC2 | – | inconclusive [inhibitor, single point] |
| CC(C)Nc1cc(N2CCCC2)ccc1[N+](=O)[O-] | – | inconclusive [inhibitor, single point] |
| Cc1cc(C)c(C)c(OCCCOc2cccc3cccnc23)c1 | – | inconclusive [inhibitor, single point] |
| Cc1ccc(NCC(=O)Nc2ccc(Br)cc2)cc1C | – | inconclusive [inhibitor, single point] |
| O=C(NCCCC1CCCC1)C1CCC(=O)N(Cc2cccc(C(F)(F)F)c2)C1 (stereo not given) | – | inconclusive [inhibitor, single point] |
| CC1CCCCC12NC(=O)N(CC(=O)c1ccc(Cl)s1)C2=O (stereo not given) | – | inconclusive [inhibitor, full curve, poor fit] |
| COc1ccc2[nH]c(C)c(C(=O)CN(C)CC(OC)OC)c2c1 | – | inconclusive [inhibitor, single point] |
| Cc1cccc(N2CCN(C(=O)c3ccc4nc(-c5ccco5)c(-c5ccco5)nc4c3)CC2C)c1 (stereo not given) | – | active: 18.4 µM |
| CCCCCC(CC(=O)NO)C(=O)NC(C(=O)N1CCCC1CO)C(C)C (stereo not given) | – | active: 2.59 µM |
| COC(=O)c1ccc(Cl)c(NC(=O)CN(c2ccc(OC)cc2)S(=O)(=O)c2ccccc2)c1 | – | inconclusive [inhibitor, single point] |
| Cc1cccc(N2C(=O)C(O)=C(C(=O)c3cccs3)C2c2cccc(Oc3ccccc3)c2)n1 (stereo not given) | – | inconclusive [inhibitor, partial curve] |
| CCC(=O)Nc1ccc(C(=O)NNC(=O)c2cc(OC)c(OC)c(OC)c2)cc1 | inactive: 2.23% | – |
| COc1cc2cnc(-c3ccccc3)c(C(=O)c3ccc(OCc4ccccc4)cc3)c2cc1OC | – | inconclusive [inhibitor, partial curve] |
| Nc1ccn([C@@H]2O[C@H](CNCc3ccc(N4CCNCC4)cc3)[C@@H](O)[C@H]2O)c(=O)n1 | inactive: -4.8% | – |
| Cc1cc2oc(=O)cc(-c3ccccc3)c2c(C)c1-c1ccc(F)c(Cl)c1 | inconclusive: -35.8% [inhibitor] | – |
| Cc1cc(Br)c(NC(=O)COn2nnc3ccc(S(C)(=O)=O)cc32)c(Br)c1 | inactive: 4.72% | – |

| SMILES | activity change, negative = growth inhibition | Potency |
| --- | --- | --- |
| O=C(Nc1ccc(Cl)cc1)Nc1cccnc1 | – | active: 16.4 µM |
| COc1ccc(C2c3c(oc4ccccc4c3=O)C(=O)N2c2ccc(C)cn2)cc1OC (stereo not given) | inconclusive: -34.9% [inhibitor] | – |
| CC(C)C[C@@H](CN1CCC[C@H]1CN1C(=O)C(=O)NC[C@@H]1Cc1ccc(O)cc1)N1C[C@H](Cc2ccccc2)N(CC2CCCCCC2)C(=O)C1=O | – | inconclusive [inhibitor, single point] |
| CN(C)CCCN(Cc1ccccc1)C(=S)Nc1ccc(OC(F)F)cc1 | inactive: -0.68% | – |
| Cc1cccc(N2CCCC2=Nc2ccc(Br)cc2C#N)c1 | – | inconclusive [inhibitor, single point] |
| O=C(NCCCO)/C(=C\c1ccco1)NC(=O)c1ccco1 | inactive: 19.4% | – |
| Cc1c(CC(=O)O)c(=O)oc2c(C)c(OCc3ccc(F)cc3Cl)ccc12 | inactive: -7.08% | – |
| CSc1nnc(-c2ccncc2)n1/N=C/c1cn(-c2ccccc2)nc1-c1ccc(Cl)cc1 | – | inconclusive [inhibitor, single point] |
| COc1ccc(OC)c(-c2csc(NC(=O)Cc3ccccc3OC)n2)c1 | inactive: -18.1% | – |
| COC(=O)C1(C(F)(F)F)C2C=CC(C2)N1S(=O)(=O)c1ccc(C)cc1 (stereo not given) | – | active: 23.1 µM |
| COc1ccccc1CN1CCC(n2nccc2NC(=O)CCCc2ccccc2)CC1 | – | active: 14.6 µM |
| O=C(NCc1ccc(Cl)cc1)C(=O)NCC(c1cccs1)S(=O)(=O)c1ccc(Cl)cc1 (stereo not given) | – | inconclusive [inhibitor, single point] |
| CCCCC[C@H](O)/C=C/[C@H]1[C@H](O)CC(=O)[C@@H]1C/C=C\CCCC(=O)O | – | inconclusive [inhibitor, single point] |
| O=C(NCCCN1CCN(c2ccccc2)CC1)c1nnc(Cc2c(F)cccc2Cl)o1 | – | active: 23.1 µM |
| C=CCn1c(=S)[nH]c2cc(C(=O)N3CCN(c4ccccc4OC)CC3)ccc2c1=O | – | inconclusive [inhibitor, partial curve] |
| Nc1cc(Cl)nc(N/N=C/c2c(O)ccc3ccccc23)n1 | – | inconclusive [inhibitor, single point] |
| COCCNC(=O)C1(C)CCCN(Cc2cccc(OC(=O)c3ccccc3)c2)C1 (stereo not given) | – | inconclusive [inhibitor, single point] |
